The list shows a part of the results. At the low end of the ranking the order means little.

In the test the target is T1, ETS1 (UniProt P14921).
T1 sequence: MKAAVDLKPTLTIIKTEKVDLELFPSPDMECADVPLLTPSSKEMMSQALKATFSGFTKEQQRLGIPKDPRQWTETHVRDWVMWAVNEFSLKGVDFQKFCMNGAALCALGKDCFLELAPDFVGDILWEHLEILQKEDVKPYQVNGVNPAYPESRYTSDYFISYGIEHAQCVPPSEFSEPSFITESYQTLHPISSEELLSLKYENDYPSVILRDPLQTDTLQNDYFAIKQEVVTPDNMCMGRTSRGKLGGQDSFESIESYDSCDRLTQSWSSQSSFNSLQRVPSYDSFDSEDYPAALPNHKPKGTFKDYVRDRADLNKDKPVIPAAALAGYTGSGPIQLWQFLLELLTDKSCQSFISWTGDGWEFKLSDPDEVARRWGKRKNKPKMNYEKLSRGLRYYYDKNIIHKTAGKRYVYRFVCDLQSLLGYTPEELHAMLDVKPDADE
Kind of test: custom PBM. As to conditions: custom protein-binding microarray; buffer, salt, pH and temperature not stated; high values mean tight binding; double strand, one strand shown.
Turning to “CTGGGACTTGACCCAACTCTGCCTCGTGGGTCGTTTGTCTTGATTCGCTTGACGCTGCTG”, the binding signal (log fluorescence intensity) was 8.13.

For “GTGTATAGGATCCCAACCAACACACGTGTTAAAATGGTCTTGATTCGCTTGACGCTGCTG”, the binding signal (log fluorescence intensity) turned out to be 8.28. To “CACAATTTTTACAGTAAAGTAGCACGCGTAACTCCTGTCTTGATTCGCTTGACGCTGCTG” belongs 8.29; to “TAAAGGGAACACGGTTGTGGTAGTTCCGGGTATTAAGTCTTGATTCGCTTGACGCTGCTG”, 8.29. The result for “TCCGGCTACCAGCTCCACCCACATCAGGCCTTGTAGGTCTTGATTCGCTTGACGCTGCTG” reads 8.27. In the case of “CTGGGACTTGACCCAACTCTGCCACGTGGGTCGTTCGTCTTGATTCGCTTGACGCTGCTG”, the binding signal (log fluorescence intensity) was found to be 8.24. To “TAAAGGGAAGACGGTGGTGGTAGTTCCGGGTATTAAGTCTTGATTCGCTTGACGCTGCTG” belongs 8.68; to “GTGTATAGGATCCGATCCAACACACGTGTTAAAATGGTCTTGATTCGCTTGACGCTGCTG”, 8.18. In the case of “GATTAATTTCTGCCTTTATTCGCACGTGCCATAACAGTCTTGATTCGCTTGACGCTGCTG”, the binding signal (log fluorescence intensity) was 8.1. Turning to “CGGAAGTATCGTAAACGTCGGATATCCGGTTCTTCTGTCTTGATTCGCTTGACGCTGCTG”, the binding signal (log fluorescence intensity) was 11.5. The result for “CAGCATAGGACTTCTTCCCTGAATCAATTGATAACCGTCTTGATTCGCTTGACGCTGCTG” reads 8.24. Take “GTAAAAAGGCCCAGGGTAACACCGGAAGTGGGCTTAGTCTTGATTCGCTTGACGCTGCTG”: the binding signal (log fluorescence intensity) worked out at 12. To “GATTAATTTCTGCCCTAATTCGCACGTGCCATAACAGTCTTGATTCGCTTGACGCTGCTG” belongs 8.2; to “GCTGCTGCGGTGCATACCCCTCCGGATGTGACCCCGGTCTTGATTCGCTTGACGCTGCTG”, 8.64; to “TGTCGGGTAAGGGACTGTAGATCACGTGAATGAAAAGTCTTGATTCGCTTGACGCTGCTG”, 8.1. The result for “GTGTATAGGATCCCATCCAACACACGTGTCAAAATGGTCTTGATTCGCTTGACGCTGCTG” reads 8.18; that for “TACTGACTTATATATGCGAATACACATGAATAGACCGTCTTGATTCGCTTGACGCTGCTG”, 8.27; that for “TGTCGGGTAAGGGAATGTAGATCACGCGAATGAAAAGTCTTGATTCGCTTGACGCTGCTG”, 8.23.

As for “GTGTAGAGGATCCCATCCAACACACGTGTTAAAATGGTCTTGATTCGCTTGACGCTGCTG”, the binding signal (log fluorescence intensity) stood at 8.26. To “CAGCATAGGACTTCTTCCCTGAAGCAATTGATAACTGTCTTGATTCGCTTGACGCTGCTG” belongs 8.3; to “TACTGACTTATATATGCGAATGCGCATGAATAGACCGTCTTGATTCGCTTGACGCTGCTG”, 8.09. Consider “GATTAATTCCTGCCCTTATTCGCACGTGCCATAACAGTCTTGATTCGCTTGACGCTGCTG”, for which the binding signal (log fluorescence intensity) worked out at 10.3. The result for “TAAAGGGAAGACGGTTCTGGTAGTTCCGGGTATTAAGTCTTGATTCGCTTGACGCTGCTG” reads 8.63; that for “TCCGGCTACCAGCTCCAGCCACTTCAGGCCTTGTAGGTCTTGATTCGCTTGACGCTGCTG”, 8.12. The result for “GCTGCTGCGGTGCATACCCAACCGGATGTGACCCCGGTCTTGATTCGCTTGACGCTGCTG” reads 10.3; that for “GTGTATAGGATCCCATCCAACACACCTGTTAAAATGGTCTTGATTCGCTTGACGCTGCTG”, 8.32. The result for “TACTGACTTATATATGCGGATGCACATGAATAGACCGTCTTGATTCGCTTGACGCTGCTG” reads 8.31; that for “TCCTGCTACCAGCTCCACCCACTTCAGGCCTTGTAGGTCTTGATTCGCTTGACGCTGCTG”, 8.42. As to “TAAAGGGAAGACGGCTGTGGTAGTTCCGGGTATTAAGTCTTGATTCGCTTGACGCTGCTG”, the binding signal (log fluorescence intensity) is 8.35. The result for “GCTGCTGCGGTGCATACCCCATCGGATGTGACCCCGGTCTTGATTCGCTTGACGCTGCTG” reads 8.41. Regarding “TACTGACTTATTTATGCGAATGCACATGAATAGACCGTCTTGATTCGCTTGACGCTGCTG”, the binding signal (log fluorescence intensity) came to 8.24.

With “CAGCATAGGACTTCTTCCCTGAAGCAATTGATCACCGTCTTGATTCGCTTGACGCTGCTG”, the binding signal (log fluorescence intensity) was found to be 8.29. “TGTCGGGTAAGGGAATGTAGATCACGTGAATGTAAAGTCTTGATTCGCTTGACGCTGCTG”: the binding signal (log fluorescence intensity) came to 8.34. To “CTGGGACTTGACCCAACTCTGCCACGTGGGTCGTATGTCTTGATTCGCTTGACGCTGCTG” belongs 8.32; to “CTGGGACTAGACCCAACTCTGCCACGTGGGTCGTTTGTCTTGATTCGCTTGACGCTGCTG”, 8.14; to “GTGTATAGGATCCCATCCAACACACGTGTTACAATGGTCTTGATTCGCTTGACGCTGCTG”, 8.2. “GGAGAAAGGCCCAGGGTAACACCGGAAGTGGGCTTAGTCTTGATTCGCTTGACGCTGCTG”: the binding signal (log fluorescence intensity) worked out at 11.9. To “GTGTATAGGATCCCATCCAACACACATGTTAAAATGGTCTTGATTCGCTTGACGCTGCTG” belongs 8.12; to “GATTAATTTCTGCCCGTATTCGCACGTGCCATAACAGTCTTGATTCGCTTGACGCTGCTG”, 8.33. The result for “GGAAAAAGGCCCAGGGTAACACCGGAAGTGGGCTCAGTCTTGATTCGCTTGACGCTGCTG” reads 12; that for “TGTAGGGTAAGGGAATGTAGATCACGTGAATGAAAAGTCTTGATTCGCTTGACGCTGCTG”, 8.35; that for “TCTGCTGCGGTGCATACCCCACCGGATGTGACCCCGGTCTTGATTCGCTTGACGCTGCTG”, 10.1. As for “CAGCATAGGACTTCTTCCCAGAAGCAATTGATAACCGTCTTGATTCGCTTGACGCTGCTG”, the binding signal (log fluorescence intensity) was determined as 8.23.

In the case of “CTGGGACTTGAGCCAACTCTGCCACGTGGGTCGTTTGTCTTGATTCGCTTGACGCTGCTG”, the binding signal (log fluorescence intensity) amounted to 8.24.

For the sequence “CAGCATAGGACTTCTTCCCTGAAGCAATTGAGAACCGTCTTGATTCGCTTGACGCTGCTG”, the binding signal (log fluorescence intensity) was found to be 8.15. The result for “GATTAATTTGTGCCCTTATTCGCACGTGCCATAACAGTCTTGATTCGCTTGACGCTGCTG” reads 8.21; that for “GTATATAGGATCCCATCCAACACACGTGTTAAAATGGTCTTGATTCGCTTGACGCTGCTG”, 8.29. The result for “CTGGGAGTTGACCCAACTCTGCCACGTGGGTCGTTTGTCTTGATTCGCTTGACGCTGCTG” reads 8.26; that for “GGAAAAAGGCCCAGCGTAACACCGGAAGTGGGCTTAGTCTTGATTCGCTTGACGCTGCTG”, 11.9; that for “CACAATTTTTACAGTAATGTAGCACGCGTTACTCCTGTCTTGATTCGCTTGACGCTGCTG”, 8.29.

As to “GGAAAAAGGCCCAGGGTAACACCGGAAGTGGGCATAGTCTTGATTCGCTTGACGCTGCTG”, the binding signal (log fluorescence intensity) is 12. As for “TCCGGCTACCAGCTCCACCCACTTCAGGGCTTGTAGGTCTTGATTCGCTTGACGCTGCTG”, the binding signal (log fluorescence intensity) is 8.11.

(Values after PMC6602471.)
